Results reported in publication PMC4336329 (PLoS ONE, 2015).
The whole screen tested about 310,000 compounds, of which about 14,000 (4.5%) showed an effect of 50% or more. Effects have a minus sign here. Some of the results follow.

biological target: human ether-à-go-go-related gene (hERG) potassium channel (human, UniProt Q12809); assay: primary screen, population patch clamp on CHO cells stably expressing hERG
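Also: peak tail current of the secondary pulse compared with the same well before compound.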

human ether-à-go-go-related gene (hERG) potassium channel, sequence (Q12809 whole entry, looked up): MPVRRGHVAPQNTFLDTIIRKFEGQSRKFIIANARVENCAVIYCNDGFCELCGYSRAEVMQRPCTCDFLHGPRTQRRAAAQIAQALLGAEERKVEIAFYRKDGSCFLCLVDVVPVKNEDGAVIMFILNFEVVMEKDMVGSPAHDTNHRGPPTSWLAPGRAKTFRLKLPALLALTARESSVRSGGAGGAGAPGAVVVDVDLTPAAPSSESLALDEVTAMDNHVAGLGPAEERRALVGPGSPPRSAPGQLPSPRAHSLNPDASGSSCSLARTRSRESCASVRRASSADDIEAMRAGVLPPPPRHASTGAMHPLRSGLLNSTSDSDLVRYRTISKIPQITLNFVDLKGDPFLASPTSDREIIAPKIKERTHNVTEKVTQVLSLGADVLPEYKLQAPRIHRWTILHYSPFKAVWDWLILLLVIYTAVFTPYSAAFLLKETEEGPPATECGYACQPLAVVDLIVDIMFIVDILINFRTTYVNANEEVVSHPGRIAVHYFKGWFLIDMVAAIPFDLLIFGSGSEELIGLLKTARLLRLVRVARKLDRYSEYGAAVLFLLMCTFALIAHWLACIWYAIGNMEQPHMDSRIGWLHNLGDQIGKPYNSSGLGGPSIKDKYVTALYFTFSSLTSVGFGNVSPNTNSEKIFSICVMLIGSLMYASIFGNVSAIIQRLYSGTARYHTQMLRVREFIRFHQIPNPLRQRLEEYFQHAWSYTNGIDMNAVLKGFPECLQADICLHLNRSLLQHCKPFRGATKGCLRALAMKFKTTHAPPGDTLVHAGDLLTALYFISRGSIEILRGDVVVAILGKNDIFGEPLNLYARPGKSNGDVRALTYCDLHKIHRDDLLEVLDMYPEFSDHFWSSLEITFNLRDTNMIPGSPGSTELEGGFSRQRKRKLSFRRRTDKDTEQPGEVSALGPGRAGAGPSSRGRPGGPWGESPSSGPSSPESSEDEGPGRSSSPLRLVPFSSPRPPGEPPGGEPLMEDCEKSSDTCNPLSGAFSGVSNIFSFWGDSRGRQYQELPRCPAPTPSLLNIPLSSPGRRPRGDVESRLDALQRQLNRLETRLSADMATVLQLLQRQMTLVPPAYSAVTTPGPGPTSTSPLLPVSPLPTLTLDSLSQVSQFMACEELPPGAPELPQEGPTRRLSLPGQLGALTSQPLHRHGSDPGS

In order of rising “hERG current change (%, negative = inhibition) at 10uM” value:
1. CCn1cc(C(=O)NCCCN2CCCCCC2)c(=O)c2cc(S(=O)(=O)N3CCc4ccccc4C3)ccc21  -77.7%
2. CCCCN(CCCC)CCNC(=O)c1cn(C)c2ccc(S(=O)(=O)N(C)C3CCCCC3)cc2c1=O  -76.7%
3. Cn1c(=O)c2c(ncn2CC(=O)N2CCN(c3ccc([N+](=O)[O-])cc3)CC2)n(C)c1=O  -72%
4. COc1ccc(CN2CCN(C(=O)COc3ccc4ccccc4c3)CC2)c(OC)c1  -52.6%
5. CC(C)Cn1c(N)c(C(=O)COC(=O)C2CC(=O)N(c3ccc4c(c3)OCCO4)C2)c(=O)n(C)c1=O (centres unmarked)  -52.6%
6. CS(=O)(=O)N(Cc1ccc(Cl)cc1)c1ccc(C(=O)NCC2CCCO2)cc1 (centres unmarked)  -46.7%
7. COc1ccc(C(=O)c2no[n+]([O-])c2C(=O)c2ccc(OC)cc2)cc1  -41.7%
8. Cc1nnc(Sc2cc(C(=O)NCc3ccco3)c3ccccc3n2)s1  -33.6%
9. CC(C)[C@@H](COc1ccccc1)N1CCN(Cc2ccccc2)CCC1=O  -29.6%
10. O=C(Nc1ccccc1)N1CCN(Cc2ccc3c(c2)OCO3)CC1  -26.1%
11. CCOC(=O)CSc1nc2ccc(N3CCOCC3)cc2c(=O)n1Cc1ccccc1  -20.5%
12. CC1(C(=O)OCC(=O)NNC(=O)COc2ccc(Cl)cc2)CC1(Cl)Cl (centres unmarked)  -20.3%
13. CCOC(=O)[C@H]1[C@H]2COc3ccc(C)cc3[C@@H]2N2C(=O)c3cc(F)ccc3NC(=O)[C@@]12C  -18.5%
14. CCC(C(=O)OCC(=O)N1CCN(S(=O)(=O)c2ccc(C)cc2C)CC1)c1ccccc1 (centres unmarked)  -15.8%
15. O=C(NCCN1CCOCC1)c1ccccc1Oc1ccccc1  -15.7%
16. Nc1sc2c(c1C(=O)c1ccccc1)CCCC2  -14.3%
17. C=CCn1c(CCc2ccc(OC(C)C)cc2)n[nH]c1=S  -14.2%
18. Cc1ccccc1OCCC(=O)N1CCN(S(=O)(=O)c2ccc(F)cc2)CC1  -13.7%
19. Cc1ccc(CN(C(=O)c2cc(=O)c3cc(Cl)c(C)cc3o2)C2CCS(=O)(=O)C2)cc1 (centres unmarked)  -13.7%
20. CC(C)C(NC(=O)C1CCC(C(C)(C)C)CC1)C(=O)NCc1cccnc1 (centres unmarked)  -12.2%
21. CCCn1c(SCC(=O)NC)nc2sc3c(c2c1=O)CCC3  -11.4%
22. Cn1nnnc1SCC(=O)NCc1cccc(C(=O)O)c1  -9.75%
23. COc1ccc(C)cc1Cn1c(S(C)(=O)=O)nc2ccccc21  -9.64%
24. COc1ccc(NC(=O)c2cc(Br)c(Br)s2)cn1  -9.05%
25. NS(=O)(=O)c1ccc(CCNC(=O)CSc2ccc(Cl)cc2)cc1  -8.77%
26. Cc1cccc(C)c1NC(=O)c1ccc([N+](=O)[O-])s1  -8.67%
27. Cc1cccc(-c2ccc3ncnc(NCc4cccs4)c3c2)c1  -8.55%
28. Cc1ccccc1CN1CCN(Cc2ccccc2)CC1.O=C(O)C(=O)O  -7.72%
29. COc1cccc(-c2noc(CCC(=O)NC3CCCCC3)n2)c1  -6.43%
30. CCN(CC)C(=O)/C(=C\c1ccncc1)NC(=O)c1ccccc1  -5.95%
31. CN(C)C(=O)On1c(-c2ccccc2)nc2ccc(Cl)cc21  -5.78%
32. COC(=O)CNC(=O)CN1C(=O)N(c2ccc(Cl)cc2)C(N(O)C(=O)Nc2ccc(Cl)cc2)C1(C)C (centres unmarked)  -5.29%
33. COc1ccc(NC(=O)CSc2nnc(-c3cccnc3)s2)cc1  -5.25%
34. CC(=NCC1CCCO1)C1=C(O)CC(C)(C)CC1=O (centres unmarked)  -5.04%
35. CCc1ccc(NC(=O)CCNS(=O)(=O)c2cccc3nonc23)cc1  -4.75%
36. CC(C)C(NC(=O)Cc1ccccc1[N+](=O)[O-])C(C)C  -4.45%
37. CCCCCc1ccc(-c2cn(CCc3c[nH]c4ccccc34)nn2)cc1  -3.24%
38. COC(=O)C1CCCCN1C(=O)c1ccc2oc(Cc3ccccc3)nc2c1 (centres unmarked)  -2.29%
39. COc1ccc(NC2=NCC(=O)N2Cc2cccs2)cc1.Cl  0.619%
40. CC12CN(C(=O)c3ccccc3)C3(C#N)CC1CCC23C (centres unmarked)  0.751%
41. CC(=O)OCC1OC(OCc2cn(C[C@H]3CC[C@@H]([C@@H]4CC[C@H](Cn5cc(COC6OC(COC(C)=O)C(OC(C)=O)C(OC(C)=O)C6OC(C)=O)nn5)O4)O3)nn2)C(OC(C)=O)C(OC(C)=O)C1OC(C)=O (some centres unmarked)  0.857%
42. COc1ccc(S(=O)(=O)N2CC=C(C(=O)NC3CCCC3)CC2)cc1  1.24%
43. COc1cc(-c2nc(-c3ccccc3)c(-c3cc([N+](=O)[O-])ccc3C)[nH]2)cc(OC)c1OC  1.42%
44. CNC(=O)c1nc(C)n(-c2ccc(Cl)cc2Cl)n1  1.69%
45. C=C(C)CN(CC)C(=O)CCc1nnc(CCc2c[nH]c3ccccc23)o1  2.13%
46. CC(C)(C)c1ccc(NC(=O)CNC2CCCc3ccccc32)cc1.Cl (centres unmarked)  2.24%
47. CCOc1ccc(C(NC(C)=O)c2ccc(OC)c(OC)c2)cc1 (centres unmarked)  2.3%
48. O=c1oc2c3c(nn2c2ccccc12)CCCC3  2.4%
49. Cc1ccc(/C=N/N2CCN(c3ccccn3)CC2)cc1  2.68%
50. COc1ccc(C)cc1NC(=O)CSc1nnc(-c2cc(C)[nH]n2)n1N  2.92%
51. Cc1nc2c(C(=O)NCCc3ccccc3Cl)c[nH]n2c(=O)c1Cl  3.14%
52. Cc1cc(NC(=O)CSCC(=O)Nc2cc(C(F)(F)F)ccc2N2CCOCC2)no1  5.68%
53. O=C(NC1CCCc2ccccc21)c1cc(S(=O)(=O)N2CCOCC2)ccc1F (centres unmarked)  6.48%
54. O=C(C1=C(O)C(=O)N(CCN2CCOCC2)C1c1cccc(Br)c1)c1cccs1 (centres unmarked)  7.7%
55. Cc1nc2c(C)cccc2c2c1COC2  7.98%
56. Nc1ccc(-c2c3ccccc3nc3ccccc23)cc1  8%
57. Cc1cccc(N(NC(=O)C(C)(C)O)C(=O)c2ccccc2)c1  8.44%
58. Cc1cc(C)nc(Oc2ccc(Br)cc2)n1  9.09%
59. O=C(Cc1ccccc1)NCc1ccc(F)cc1  9.14%
60. Cn1c(SCC(=O)NC2CC2)nnc1-c1ccco1  9.16%
61. COc1ccc(NC(=O)CSc2nc3ncccc3[nH]2)cc1OC  9.75%
62. O=C(NC(=O)c1ccc(Cl)cc1)Nc1ccc(-c2cnco2)cc1  9.76%
63. Cc1cc(C)c(C)c(S(=O)(=O)Nc2ccc(C(N)=O)cc2)c1C  10.3%
64. Cc1ccccc1-c1nc2ccccc2c(=O)n1/N=C/c1ccccc1[N+](=O)[O-]  10.6%
65. O=C(O)c1ccc(NCc2nc3ccccc3n2Cc2ccccc2F)cc1  10.9%
66. COc1ccc(NC2=CC(c3ccccc3)N(c3ccc(OC)cc3)C2=O)cc1 (centres unmarked)  11.2%
67. Cc1cc(Cl)ccc1NC(=S)NC1CCCC1  11.4%
68. CCOC(=O)C1(O)CC(C)=NN1C(=O)c1cccc(Cl)c1 (centres unmarked)  11.5%
69. Cc1ccccc1C(=O)Nc1ccc2c(C#N)c3nc4ccccc4nc3n2c1  11.9%
70. O=C(O)CC(CC(=O)Nc1ccc(N2CCOCC2)cc1)c1ccccc1 (centres unmarked)  12.7%
71. CC(=O)c1sc(-c2ccc(Cl)cc2)nc1C  12.7%
72. Cl.O=S(=O)(NCCN1CCOCC1)c1ccc(F)c(Cl)c1  13.5%
73. Cc1cc(C(=O)COC(=O)c2ccc(Br)o2)c(C)n1C  13.9%
74. COC(=O)c1cc(NC(=O)CC2Oc3ccccc3NC2=O)cc(C(=O)OC)c1 (centres unmarked)  16.4%
75. COc1ccc(CCNC(=O)CN2C(=O)COc3ccc(S(=O)(=O)N4CCOCC4)cc32)cc1OC  16.6%
76. Cc1ccc(N=Nc2ccc(C)cc2NC(=O)Nc2ccccc2F)cc1  17.3%
77. NC(=O)c1ccc(NC(=O)CN2CCOCC2)cc1  17.9%
78. O=C(O)CCc1ccc(-c2ccccc2)n1NC(=O)c1ccco1  18.9%
79. O=C(CCCc1cccs1)Nc1nc(-c2ccc(F)cc2)cs1  19.8%
80. COc1ccc(C(=O)C=CNNC(=O)c2ccc(Cl)cc2)cc1  20.3%
81. COc1cc2c(cc1OC)C(CC(=O)O)N(C(=O)CC1CCCC1)CC2 (centres unmarked)  20.6%
82. COc1ccc(-c2c([C@H]3[C@H]4C=CC[C@@H](C)[C@@H]4C(=O)N3Cc3ccccc3)ccc3ccccc23)cc1  20.8%
83. O=C1NCC(c2ccccc2)C1C(=O)N/N=C\c1ccc(-c2ccc(Cl)c(Cl)c2)o1 (centres unmarked)  20.9%
84. O=C(COC(=O)c1ccc(O)cc1)Nc1cccc(S(=O)(=O)NC2=NCCC2)c1  21.8%
85. Cn1nc(Cc2n[nH]c(=S)n2C)c2ccccc2c1=O  23.9%
86. COCC(=O)OCC(=O)Nc1ccccc1-c1ccccc1  39.1%
